Experimental findings from the BET-seq Pho4 binding data (Le et al. 2018) are described below.

Some of the results follow. These are noisy estimates, calculated here from bound and input reads.

This experiment concerns the target T1, Pho4 (S. cerevisiae) (UniProt P07270).
T1 sequence: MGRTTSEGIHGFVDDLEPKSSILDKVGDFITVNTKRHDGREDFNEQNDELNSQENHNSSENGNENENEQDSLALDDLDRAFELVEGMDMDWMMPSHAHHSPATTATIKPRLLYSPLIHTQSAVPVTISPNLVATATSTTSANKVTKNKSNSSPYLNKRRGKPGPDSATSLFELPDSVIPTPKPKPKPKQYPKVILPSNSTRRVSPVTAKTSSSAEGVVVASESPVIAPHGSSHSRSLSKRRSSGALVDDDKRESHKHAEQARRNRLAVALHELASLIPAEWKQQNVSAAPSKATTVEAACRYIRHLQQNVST
Kind of experiment: relative binding free energy (BET-seq); higher = weaker binding. Conditions: reference: library average.
GAAGTCACGTGTAGTT: the “relative binding free energy” value turned out to be 0.24 kcal/mol.

TGTTTCACGTGGTGAC: the “relative binding free energy” value was determined as 0.2 kcal/mol. The value for AGGTCCACGTGGTGAG was -0.04 kcal/mol; that for GTTTTCACGTGGACTA was 0.26 kcal/mol. As for GTCAGCACGTGTTTAG, the “relative binding free energy” value was -0.09 kcal/mol.

In the case of ATGAACACGTGTGTAG, the “relative binding free energy” value is -0.02 kcal/mol. Take AGAGTCACGTGACGTG: the “relative binding free energy” value worked out at 0.29 kcal/mol. Consider AGGTTCACGTGAAGTA, for which the “relative binding free energy” value worked out at 0.39 kcal/mol. TAGTGCACGTGGATGG: the “relative binding free energy” value was -0.01 kcal/mol. With TGGCTCACGTGGTGCT, the “relative binding free energy” value amounted to 0.27 kcal/mol.

On to GTGCACACGTGTGAGT, for which the “relative binding free energy” value amounted to 0.18 kcal/mol. In the case of GGAATCACGTGTGTTG, the “relative binding free energy” value is 0.11 kcal/mol.

Turning to AAGGACACGTGAAGGG, the “relative binding free energy” value turned out to be 0.3 kcal/mol.

TTTGGCACGTGTTAGA: the “relative binding free energy” value was -0.01 kcal/mol. For AAGTTCACGTGGGATT, the “relative binding free energy” value was 0.28 kcal/mol. For AGACGCACGTGGGGGT, the “relative binding free energy” value is -0.3 kcal/mol. Turning to GTTGTCACGTGCATTA, the “relative binding free energy” value was 0 kcal/mol. The same measure for TTGAACACGTGAATGG: 0.32 kcal/mol; for CAGGGCACGTGGCGCT: -0.13 kcal/mol; for ATGTGCACGTGTGTAG: 0.03 kcal/mol.

On to ACTTTCACGTGTGCGT, for which the “relative binding free energy” value worked out at 0.14 kcal/mol. Consider TCTTTCACGTGTGGAG, for which the “relative binding free energy” value is 0.33 kcal/mol. Take TAAAGCACGTGGGTAA: the “relative binding free energy” value was -0.21 kcal/mol. Turning to CGGGGCACGTGATGTC, the “relative binding free energy” value is -0.03 kcal/mol. On to TTCGGCACGTGGGCGC, for which the “relative binding free energy” value is -0.2 kcal/mol. The same measure for GATTTCACGTGGGTGT: 0.22 kcal/mol; for GGAAGCACGTGCATGG: -0.14 kcal/mol. The same measure for TGGTACACGTGGTGAA: -0.02 kcal/mol; for TGGTCCACGTGGTTGG: -0.04 kcal/mol; for AGTGTCACGTGGGGGG: -0.08 kcal/mol. For the sequence AGGAGCACGTGATAGT, the “relative binding free energy” value was -0.01 kcal/mol. Regarding GTTAGCACGTGGGGGC, the “relative binding free energy” value is -0.14 kcal/mol.

Consider CGTTTCACGTGCGTGT, for which the “relative binding free energy” value stood at 0.09 kcal/mol. Turning to TTGTGCACGTGCCTAT, the “relative binding free energy” value is 0.07 kcal/mol. The same measure for AGGGTCACGTGCATGA: -0.01 kcal/mol; for TTTCACACGTGAGTGT: 0.23 kcal/mol; for GGATCCACGTGGGTGG: -0.25 kcal/mol. With TATTTCACGTGGTGAC, the “relative binding free energy” value was 0.23 kcal/mol. The same measure for GTGTACACGTGTTCAT: 0.05 kcal/mol; for TGTTGCACGTGGCTGA: -0.11 kcal/mol. With ATGCACACGTGGATGT, the “relative binding free energy” value came out at 0.15 kcal/mol.

Turning to TTTTACACGTGGTGAG, the “relative binding free energy” value was 0.06 kcal/mol. Take ACAGGCACGTGGTTAG: the “relative binding free energy” value is -0.22 kcal/mol.

In the case of GGTTCCACGTGGAGTT, the “relative binding free energy” value stood at 0.07 kcal/mol. As for TCAAGCACGTGGGGCG, the “relative binding free energy” value is -0.15 kcal/mol. Consider TAGTACACGTGTTCGT, for which the “relative binding free energy” value was determined as 0.05 kcal/mol. As to GCAGGCACGTGTTTTG, the “relative binding free energy” value is -0.07 kcal/mol. With GTATGCACGTGTAATA, the “relative binding free energy” value was 0.04 kcal/mol. As for GGGTGCACGTGCTATT, the “relative binding free energy” value is 0.04 kcal/mol. Turning to GATTGCACGTGAAGTG, the “relative binding free energy” value stood at 0.26 kcal/mol. For the sequence AGTATCACGTGGGCGT, the “relative binding free energy” value was 0.09 kcal/mol.

Take GTAGACACGTGAATGT: the “relative binding free energy” value stood at 0.4 kcal/mol. As to AAAAGCACGTGGAGGT, the “relative binding free energy” value was -0.24 kcal/mol. For GGATCCACGTGATAGG, the “relative binding free energy” value came to 0.18 kcal/mol. The value for CATTACACGTGTTTTG was 0 kcal/mol. Consider TGTTACACGTGGGCTC, for which the “relative binding free energy” value was found to be 0.21 kcal/mol.

As to ATTAGCACGTGTGTGA, the “relative binding free energy” value is -0.02 kcal/mol. For AGGGCCACGTGCTGGT, the “relative binding free energy” value was -0.29 kcal/mol. The value for GAGTTCACGTGGGGGG was 0.26 kcal/mol; that for CAGGGCACGTGGCATG was -0.24 kcal/mol; that for GGATTCACGTGTTTCG was 0.27 kcal/mol. Consider ATTTGCACGTGGAGGC, for which the “relative binding free energy” value came out at 0.04 kcal/mol. For the sequence GAAGTCACGTGTGGTG, the “relative binding free energy” value was 0.16 kcal/mol. The value for GGACGCACGTGGCGTT was -0.17 kcal/mol; that for GGCCGCACGTGGTGAT was -0.07 kcal/mol. Take GTGCTCACGTGACGGT: the “relative binding free energy” value is 0.29 kcal/mol. The same measure for TTGGCCACGTGGTTTA: -0.04 kcal/mol; for AGCGGCACGTGTGGTG: -0.07 kcal/mol; for ACGTGCACGTGAGAGG: 0.01 kcal/mol. The same measure for ACGTGCACGTGGCGTT: -0.12 kcal/mol; for GTCTGCACGTGCGGAT: 0.11 kcal/mol; for AGGGTCACGTGTGTGA: 0.04 kcal/mol. In the case of TTCTGCACGTGGCGTA, the “relative binding free energy” value came to 0.02 kcal/mol.
